Source: the supplement of paper PMC8728848
This is one part of the list.

How the values were obtained:
Assay in all cases: glycan array binding signal (z-score within array); higher = stronger binding
Settings in all cases: glycan notation: IUPAC condensed, linker removed
[1] = target: Gal(a1-3)Gal(b1-4)[Fuc(a1-3)]GlcNAc
Method in brief: (§1)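 Negative Z-scores can be read as non-binding. The Z-score is calculated within each array and then averaged across arrays of one protein sequence at different concentrations or buffers and across linkers. Arrays, 3228 in all, were curated from the Consortium for Functional Glycomics database and kept only where the protein sequence was available.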

[2] = target: Gal(a1-3)GalNAc
Method in brief: as §1

[3] = target: Gal(a1-3)[Gal(a1-4)]Gal(b1-4)GlcNAc
Method in brief: as §1

[4] = target: Gal(a1-4)Gal(b1-4)Glc
Method in brief: as §1

[5] = target: Gal(a1-4)Gal(b1-4)GlcNAc
Method in brief: as §1

[6] = target: Gal(a1-4)GlcNAc
Method in brief: as §1

[7] = target: Gal(a1-6)Glc
Method in brief: as §1

[8] = target: Gal(b1-2)Gal
Method in brief: as §1

[9] = target: Gal(b1-3)Gal
Method in brief: as §1

[10] = target: Gal(b1-3)GalNAc
Method in brief: as §1

[11] = target: Gal(b1-3)GalNAc(b1-4)Gal(b1-4)Glc
Method in brief: as §1

[12] = target: Gal(b1-3)GalNAc(b1-4)[Neu5Ac(a2-3)]Gal(b1-4)Glc
Method in brief: as §1

[13] = target: Gal(b1-3)GlcNAc
Method in brief: as §1

[14] = target: Gal(b1-3)GlcNAc(b1-3)Gal(b1-4)Glc
Method in brief: as §1

[15] = target: Gal(b1-3)[Fuc(a1-4)]GlcNAc
Method in brief: as §1

[16] = target: Gal(b1-3)[GlcNAc(b1-6)]GalNAc
Method in brief: as §1

[17] = target: Gal(b1-3)[Neu5Ac(a2-6)]GalNAc
Method in brief: as §1

[18] = target: Gal(b1-3)[Neu5Ac(a2-6)]GlcNAc(b1-4)Gal(b1-4)Glc
Method in brief: as §1

[19] = target: Gal(b1-3)[Neu5Ac(b2-6)]GalNAc
Method in brief: as §1

[20] = target: Gal(b1-4)GalNAc(a1-3)[Fuc(a1-2)]Gal(b1-4)GlcNAc
Method in brief: as §1

[21] = target: Gal(b1-4)Glc
Method in brief: as §1

[22] = target: Gal(b1-4)Glc6S
Method in brief: as §1

[23] = target: Gal(b1-4)GlcNAc
Method in brief: as §1

[24] = target: Gal(b1-4)GlcNAc(b1-3)Gal(b1-4)Glc
Method in brief: as §1

[25] = target: Gal(b1-4)GlcNAc(b1-3)Gal(b1-4)GlcNAc
Method in brief: as §1

[26] = target: Gal(b1-4)GlcNAc(b1-3)Gal(b1-4)GlcNAc(b1-3)Gal(b1-4)GlcNAc
Method in brief: as §1

[27] = target: Gal(b1-4)GlcNAc(b1-3)Gal(b1-4)[Fuc(a1-3)]GlcNAc(b1-3)Gal(b1-4)[Fuc(a1-3)]GlcNAc
Method in brief: as §1

[28] = target: Gal(b1-4)GlcNAc(b1-3)GalNAc
Method in brief: as §1

[29] = target: Gal(b1-4)GlcNAc(b1-3)[Gal(b1-4)GlcNAc(b1-6)]GalNAc
Method in brief: as §1

[30] = target: Gal(b1-4)GlcNAc(b1-6)GalNAc
Method in brief: as §1

[31] = target: Gal(b1-4)GlcNAc(b1-6)[Gal(b1-3)]GalNAc
Method in brief: as §1

[32] = target: Gal3S(b1-3)GalNAc
Method in brief: as §1

[33] = target: Gal3S(b1-3)GlcNAc
Method in brief: as §1

[34] = target: Gal3S(b1-3)[Fuc(a1-4)]GlcNAc
Method in brief: as §1

[35] = target: Gal3S(b1-4)Glc
Method in brief: as §1

[36] = target: Gal3S(b1-4)Glc6S
Method in brief: as §1

[37] = target: Gal3S(b1-4)GlcNAc
Method in brief: as §1

[38] = target: Gal4S(b1-4)GlcNAc
Method in brief: as §1

[39] = target: Gal6S(b1-4)Glc
Method in brief: as §1

[40] = target: Gal6S(b1-4)Glc6S
Method in brief: as §1

[41] = target: GalNAc(a1-3)Gal
Method in brief: as §1

[42] = target: GalNAc(a1-3)GalNAc
Method in brief: as §1

[43] = target: GalNAc(b1-3)GalNAc
Method in brief: as §1

[44] = target: GalNAc(b1-4)GlcNAc
Method in brief: as §1

[45] = target: Glc(a1-4)Glc
Method in brief: as §1

[46] = target: Glc(b1-4)Glc
Method in brief: as §1

[47] = target: Glc(b1-6)Glc
Method in brief: as §1

[48] = target: GlcNAc(b1-2)Gal(b1-3)GalNAc
Method in brief: as §1

[49] = target: GlcNAc(b1-3)Gal
Method in brief: as §1

[50] = target: GlcNAc(b1-3)Gal(b1-3)GalNAc
Method in brief: as §1

[51] = target: GlcNAc(b1-3)Gal(b1-4)Glc
Method in brief: as §1

[52] = target: GlcNAc(b1-3)Gal(b1-4)GlcNAc
Method in brief: as §1

[53] = target: GlcNAc(b1-3)[GlcNAc(b1-6)]GalNAc
Method in brief: as §1

[54] = target: GlcNAc(b1-3)[GlcNAc(b1-6)]GlcNAc(b1-4)GlcNAc
Method in brief: as §1

[55] = target: GlcNAc(b1-4)GlcNAc(b1-4)GlcNAc
Method in brief: as §1

[56] = target: GlcNAc(b1-4)[GlcNAc(b1-6)]GalNAc
Method in brief: as §1

[57] = target: GlcNAc(b1-6)GalNAc
Method in brief: as §1

B1: TES70 (Toxocara canis), Q9XYV5 (protein)
chain: MISVVLVAIALQISGSYAGACNSINDCGLFETCVNNMCVPDNMGCPMPCQAGQVCVPPNCVAAPAPQPVTTTTAAATTTTSARGRCNANAQCGAFEVCVNGMCQPNNAGCNPPCAANQVCVAPNCVPAPIPPPAQSTTTAPATTRAPPSCPPSWSPFSGHCYYVAVGSFLFNQASDWCTQTNSRPVWFDQSNVGTFGAELYFINVLAASRGVQTYWLGLNRQFGQWVWTNGSPLIFSNWRGSEPDGCCGGNVTCALVNYANPFGQWDDAGCGNIWRNPQGFICKKPLA
- glycan array binding signal (z-score) [1]: 0.163
- glycan array binding signal (z-score) [2]: -0.119
- glycan array binding signal (z-score) [3]: -0.153
- glycan array binding signal (z-score) [4]: 0.055
- glycan array binding signal (z-score) [5]: -0.104
- glycan array binding signal (z-score) [6]: -0.043
- glycan array binding signal (z-score) [7]: -0.167
- glycan array binding signal (z-score) [8]: -0.118
- glycan array binding signal (z-score) [9]: -0.141
- glycan array binding signal (z-score) [10]: -0.108
- glycan array binding signal (z-score) [11]: -0.09
- glycan array binding signal (z-score) [12]: -0.126
- glycan array binding signal (z-score) [13]: -0.115
- glycan array binding signal (z-score) [14]: -0.155
- glycan array binding signal (z-score) [15]: -0.111
- glycan array binding signal (z-score) [16]: -0.137
- glycan array binding signal (z-score) [17]: 0.002
- glycan array binding signal (z-score) [18]: -0.193
- glycan array binding signal (z-score) [19]: -0.145
- glycan array binding signal (z-score) [20]: -0.161
- glycan array binding signal (z-score) [21]: -0.064
- glycan array binding signal (z-score) [22]: -0.122
- glycan array binding signal (z-score) [23]: -0.107
- glycan array binding signal (z-score) [24]: -0.131
- glycan array binding signal (z-score) [25]: -0.133
- glycan array binding signal (z-score) [26]: -0.116
- glycan array binding signal (z-score) [27]: -0.168
- glycan array binding signal (z-score) [28]: -0.136
- glycan array binding signal (z-score) [29]: -0.115
- glycan array binding signal (z-score) [30]: 0.229
- glycan array binding signal (z-score) [31]: -0.106
- glycan array binding signal (z-score) [32]: -0.126
- glycan array binding signal (z-score) [33]: -0.204
- glycan array binding signal (z-score) [34]: -0.117
- glycan array binding signal (z-score) [35]: -0.131
- glycan array binding signal (z-score) [36]: -0.137
- glycan array binding signal (z-score) [37]: -0.182
- glycan array binding signal (z-score) [38]: -0.14
- glycan array binding signal (z-score) [39]: -0.045
- glycan array binding signal (z-score) [40]: -0.188
- glycan array binding signal (z-score) [41]: -0.128
- glycan array binding signal (z-score) [42]: -0.203
- glycan array binding signal (z-score) [43]: -0.148
- glycan array binding signal (z-score) [44]: -0.165
- glycan array binding signal (z-score) [45]: -0.15
- glycan array binding signal (z-score) [46]: -0.156
- glycan array binding signal (z-score) [47]: -0.202
- glycan array binding signal (z-score) [48]: -0.136
- glycan array binding signal (z-score) [49]: -0.121
- glycan array binding signal (z-score) [50]: -0.063
- glycan array binding signal (z-score) [51]: -0.074
- glycan array binding signal (z-score) [52]: -0.134
- glycan array binding signal (z-score) [53]: -0.172
- glycan array binding signal (z-score) [54]: -0.115
- glycan array binding signal (z-score) [55]: -0.18
- glycan array binding signal (z-score) [56]: 0.013
- glycan array binding signal (z-score) [57]: -0.124
